Source: paper PMC4824456
Results are given in words; binding and its absence hold for the method and conditions named. For part of these data: Binding seen in cells or lysates may run through a third protein. Some results given as binding are weak or reduced against the parent protein; the word gives no strength. For part of these data: Where a sequence is shown, tags or fusion partners need not be part of it.

Chains of the proteins cited; added tags and fusions are not shown. Residues count along the entry.
UniProt P10923, residues 17-294: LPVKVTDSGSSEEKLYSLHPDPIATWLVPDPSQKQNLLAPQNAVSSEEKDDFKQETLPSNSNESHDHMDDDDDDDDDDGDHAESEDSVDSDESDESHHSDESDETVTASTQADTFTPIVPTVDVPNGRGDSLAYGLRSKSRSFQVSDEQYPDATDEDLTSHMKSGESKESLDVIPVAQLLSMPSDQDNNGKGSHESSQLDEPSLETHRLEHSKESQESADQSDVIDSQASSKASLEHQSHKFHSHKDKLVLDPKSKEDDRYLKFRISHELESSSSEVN
UniProt Q86WV6: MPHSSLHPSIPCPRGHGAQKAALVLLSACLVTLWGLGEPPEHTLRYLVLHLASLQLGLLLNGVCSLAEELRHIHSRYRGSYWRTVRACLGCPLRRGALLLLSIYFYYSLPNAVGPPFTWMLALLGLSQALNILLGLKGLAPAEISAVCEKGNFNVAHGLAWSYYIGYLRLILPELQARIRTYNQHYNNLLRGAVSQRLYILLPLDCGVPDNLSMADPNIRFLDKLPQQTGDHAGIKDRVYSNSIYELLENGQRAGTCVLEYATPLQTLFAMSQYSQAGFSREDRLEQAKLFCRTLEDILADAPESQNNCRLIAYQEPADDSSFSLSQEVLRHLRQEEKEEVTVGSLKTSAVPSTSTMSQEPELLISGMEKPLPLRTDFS
UniProt Q7Z434: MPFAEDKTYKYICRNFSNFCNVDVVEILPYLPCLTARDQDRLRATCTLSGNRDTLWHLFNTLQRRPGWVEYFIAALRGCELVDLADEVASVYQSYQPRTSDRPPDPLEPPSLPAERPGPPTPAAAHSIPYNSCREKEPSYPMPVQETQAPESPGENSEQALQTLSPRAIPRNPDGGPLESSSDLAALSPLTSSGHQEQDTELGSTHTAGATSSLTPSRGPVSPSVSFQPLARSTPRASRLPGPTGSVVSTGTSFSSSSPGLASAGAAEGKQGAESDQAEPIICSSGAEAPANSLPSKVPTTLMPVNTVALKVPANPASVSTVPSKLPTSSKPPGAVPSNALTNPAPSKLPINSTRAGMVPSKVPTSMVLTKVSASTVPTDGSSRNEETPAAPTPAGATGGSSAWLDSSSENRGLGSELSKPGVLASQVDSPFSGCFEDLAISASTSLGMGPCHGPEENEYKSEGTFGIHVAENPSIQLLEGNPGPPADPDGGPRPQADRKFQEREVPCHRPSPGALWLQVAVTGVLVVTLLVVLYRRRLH

Assays:
[1] = target: Flag-iOPN (intracellular form of osteopontin) (mouse) (UniProt P10923); assay: co-IP
[2] = target: endogenous OPN (osteopontin) of mouse peritoneal macrophages (mouse (endogenous in peritoneal macrophages)) (UniProt P10923); assay: co-IP
[3] = target: T1, endogenous IRF3 of mouse peritoneal macrophages (mouse (endogenous in peritoneal macrophages)), P70671; assay: native gel or EMSA; settings: remark: other sources report otherwise
T1 chain: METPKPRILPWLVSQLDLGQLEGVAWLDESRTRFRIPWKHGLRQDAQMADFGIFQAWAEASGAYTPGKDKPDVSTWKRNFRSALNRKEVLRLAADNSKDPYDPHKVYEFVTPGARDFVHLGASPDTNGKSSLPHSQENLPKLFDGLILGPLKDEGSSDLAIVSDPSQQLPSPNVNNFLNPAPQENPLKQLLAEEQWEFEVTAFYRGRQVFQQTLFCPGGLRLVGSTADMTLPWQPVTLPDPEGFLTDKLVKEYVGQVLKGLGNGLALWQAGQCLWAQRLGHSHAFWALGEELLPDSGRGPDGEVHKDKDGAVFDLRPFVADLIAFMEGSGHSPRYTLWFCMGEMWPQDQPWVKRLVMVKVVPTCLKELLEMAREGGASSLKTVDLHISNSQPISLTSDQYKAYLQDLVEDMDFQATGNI

Myc-STING (stimulator of interferon genes protein) (from UniProt Q86WV6 1-379)
binding [1]: no binding

HA-MAVS (mitochondrial antiviral signaling protein) (from UniProt Q7Z434 1-540)
binding [1]: no binding

B1: HA-TBK1 (TANK-binding kinase 1) (enzyme, UniProt Q9UHD2 1-729)
chain: MQSTSNHLWLLSDILGQGATANVFRGRHKKTGDLFAIKVFNNISFLRPVDVQMREFEVLKKLNHKNIVKLFAIEEETTTRHKVLIMEFCPCGSLYTVLEEPSNAYGLPESEFLIVLRDVVGGMNHLRENGIVHRDIKPGNIMRVIGEDGQSVYKLTDFGAARELEDDEQFVSLYGTEEYLHPDMYERAVLRKDHQKKYGATVDLWSIGVTFYHAATGSLPFRPFEGPRRNKEVMYKIITGKPSGAISGVQKAENGPIDWSGDMPVSCSLSRGLQVLLTPVLANILEADQEKCWGFDQFFAETSDILHRMVIHVFSLQQMTAHKIYIHSYNTATIFHELVYKQTKIISSNQELIYEGRRLVLEPGRLAQHFPKTTEENPIFVVSREPLNTIGLIYEKISLPKVHPRYDLDGDASMAKAITGVVCYACRIASTLLLYQELMRKGIRWLIELIKDDYNETVHKKTEVVITLDFCIRNIEKTVKVYEKLMKINLEAAELGEISDIHTKLLRLSSSQGTIETSLQDIDSRLSPGGSLADAWAHQEGTHPKDRNVEKLQVLLNCMTEIYYQFKKDKAERRLAYNEEQIHKFDKQKLYYHATKAMTHFTDECVKKYEAFLNKSEEWIRKMLHLRKQLLSLTNQCFDIEEEVSKYQEYTNELQETLPQKMFTASSGIKHTMTPIYPSSNTLVEMTLGMKKLKEEMEGVVKELAENNHILERFGSLTMDGGLRNVDCL
binding [1]: no binding

B2: Myc-TRAF3-Mut (Y441A, Q443A) (protein, UniProt Q13114 1-568)
chain: MESSKKMDSPGALQTNPPLKLHTDRSAGTPVFVPEQGGYKEKFVKTVEDKYKCEKCHLVLCSPKQTECGHRFCESCMAALLSSSSPKCTACQESIVKDKVFKDNCCKREILALQIYCRNESRGCAEQLMLGHLLVHLKNDCHFEELPCVRPDCKEKVLRKDLRDHVEKACKYREATCSHCKSQVPMIALQKHEDTDCPCVVVSCPHKCSVQTLLRSELSAHLSECVNAPSTCSFKRYGCVFQGTNQQIKAHEASSAVQHVNLLKEWSNSLEKKVSLLQNESVEKNKSIQSLHNQICSFEIEIERQKEMLRNNESKILHLQRVIDSQAEKLKELDKEIRPFRQNWEEADSMKSSVESLQNRVTELESVDKSAGQVARNTGLLESQLSRHDQMLSVHDIRLADMDLRFQVLETASYNGVLIWKIRDYKRRKQEAVMGKTLSLASAPFYTGYFGYKMCARVYLNGDGMGKGTHLSLFFVIMRGEYDALLPWPFKQKVTLMLMDQGSSRRHLGDAFKPDPNSSSFKKPTGEMNIASGCPVFVAQTVLENGTYIKDDTIFIKVIVDTSDLPDP
binding [1]: no binding

B3: endogenous TRAF3 of mouse peritoneal macrophages (protein, UniProt Q60803 1-567)
chain: MESSKKMDAAGTLQPNPPLKLQPDRGAGSVLVPEQGGYKEKFVKTVEDKYKCEKCRLVLCNPKQTECGHRFCESCMAALLSSSSPKCTACQESIIKDKVFKDNCCKREILALQVYCRNEGRGCAEQLTLGHLLVHLKNECQFEELPCLRADCKEKVLRKDLRDHVEKACKYREATCSHCKSQVPMIKLQKHEDTDCPCVVVSCPHKCSVQTLLRSELSAHLSECVNAPSTCSFKRYGCVFQGTNQQIKAHEASSAVQHVNLLKEWSNSLEKKVSLLQNESVEKNKSIQSLHNQICSFEIEIERQKEMLRNNESKILHLQRVIDSQAEKLKELDKEIRPFRQNWEEADSMKSSVESLQNRVTELESVDKSAGQAARNTGLLESQLSRHDQMLSVHDIRLADMDLRFQVLETASYNGVLIWKIRDYKRRKQEAVMGKTLSLYSQPFYTGYFGYKMCARVYLNGDGMGKGTHLSLFFVIMRGEYDALLPWPFKQKVTLMLMDQGSSRRHLGDAFKPDPNSSSFKKPTGEMNIASGCPVFVAQTVLENGTYIKDDTIFIKVIVDTSDLPDP
binding [2]: binds

B4: endogenous IRF3 of mouse peritoneal macrophages, P70671 1-419 (protein)
chain: METPKPRILPWLVSQLDLGQLEGVAWLDESRTRFRIPWKHGLRQDAQMADFGIFQAWAEASGAYTPGKDKPDVSTWKRNFRSALNRKEVLRLAADNSKDPYDPHKVYEFVTPGARDFVHLGASPDTNGKSSLPHSQENLPKLFDGLILGPLKDEGSSDLAIVSDPSQQLPSPNVNNFLNPAPQENPLKQLLAEEQWEFEVTAFYRGRQVFQQTLFCPGGLRLVGSTADMTLPWQPVTLPDPEGFLTDKLVKEYVGQVLKGLGNGLALWQAGQCLWAQRLGHSHAFWALGEELLPDSGRGPDGEVHKDKDGAVFDLRPFVADLIAFMEGSGHSPRYTLWFCMGEMWPQDQPWVKRLVMVKVVPTCLKELLEMAREGGASSLKTVDLHISNSQPISLTSDQYKAYLQDLVEDMDFQATGNI
binding [3]: binds
